{"source": "paper PMC6919601", "about": "“Identification of Plasmodium dipeptidyl aminopeptidase allosteric inhibitors by high throughput screening” (PLoS ONE, 2019)", "note": "Out of some 110,000 compounds screened, about 230 (0.21%) showed an effect of 50% or more. The list shows a part of the results.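 Also: 30 min substrate incubation versus DMSO and 10 µM JCP410 controls.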"}
{"target": "DPAP1 (Plasmodium falciparum, UniProt Q8IIJ9)", "sequence (Q8IIJ9 whole entry, looked up)": "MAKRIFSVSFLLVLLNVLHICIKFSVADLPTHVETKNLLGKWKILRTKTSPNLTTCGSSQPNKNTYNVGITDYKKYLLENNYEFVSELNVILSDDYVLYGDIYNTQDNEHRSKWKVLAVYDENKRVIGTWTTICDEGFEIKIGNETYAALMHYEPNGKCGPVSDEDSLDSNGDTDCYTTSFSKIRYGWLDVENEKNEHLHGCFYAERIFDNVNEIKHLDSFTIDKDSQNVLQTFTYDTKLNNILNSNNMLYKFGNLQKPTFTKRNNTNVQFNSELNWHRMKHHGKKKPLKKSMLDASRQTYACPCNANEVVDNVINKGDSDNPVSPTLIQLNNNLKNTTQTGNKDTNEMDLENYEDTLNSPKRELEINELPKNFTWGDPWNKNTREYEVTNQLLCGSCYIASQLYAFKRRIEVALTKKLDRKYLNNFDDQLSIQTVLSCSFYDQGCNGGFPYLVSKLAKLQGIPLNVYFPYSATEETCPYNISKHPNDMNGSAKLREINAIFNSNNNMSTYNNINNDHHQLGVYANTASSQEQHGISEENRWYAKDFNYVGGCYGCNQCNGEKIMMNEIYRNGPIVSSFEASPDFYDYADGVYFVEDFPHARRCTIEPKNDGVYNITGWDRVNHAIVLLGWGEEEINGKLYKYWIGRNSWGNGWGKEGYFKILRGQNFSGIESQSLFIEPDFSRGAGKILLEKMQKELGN", "assay": "primary screen, percent inhibition; read by cleavage of a fluorogenic dipeptide substrate; higher = more effect of the substance", "set-up": "species or system P. falciparum D10 trophozoite lysates; single well", "units": {"% Inhibition @ 10 uM": "%"}}
{"molecule": "COc1cc(NS(=O)(=O)c2ccc(NC(=O)c3ccco3)cc2)nc(OC)n1", "% Inhibition @ 10 uM": -1.53}
{"molecule": "O=c1ccc2ccc(OCc3ccc(F)cc3)cc2o1", "% Inhibition @ 10 uM": 4.57}
{"molecule": "O=c1c2cc(-c3ccccc3)sc2nc2c3ccccc3cnn12", "% Inhibition @ 10 uM": 0.147}
{"molecule": "CCOCCCNc1nc2ccccc2n2c(C)nnc12", "% Inhibition @ 10 uM": -2.27}
{"molecule": "COc1cccc(CN2CCN(Cc3cccc(C)c3)CC2)c1", "% Inhibition @ 10 uM": -6.48}
{"molecule": "CC1(C)Oc2ccc3ccc(=O)oc3c2C(N=O)=C1O", "% Inhibition @ 10 uM": -1.05}
{"molecule": "CCCCCOC(=O)Nc1nnc(C)s1", "% Inhibition @ 10 uM": 1.13}
{"molecule": "O=C(CSc1ncccn1)N1c2ccccc2Sc2ccc(Cl)cc21", "% Inhibition @ 10 uM": -0.545}
{"molecule": "COc1ccc(C2=NN3C(C2)c2cccc(OC)c2OC3c2ccccc2)cc1", "note": "(centres unmarked)", "% Inhibition @ 10 uM": 5.5}
{"molecule": "COc1nsnc1N1CCOCC1", "% Inhibition @ 10 uM": 3.36}
{"molecule": "COc1ccc2nc(C)cc(Nc3ccccc3)c2c1", "% Inhibition @ 10 uM": 1.72}
{"molecule": "O=C(/C(=C/c1cc(Cl)ccc1O)n1cncn1)c1ccc(Cl)cc1Cl", "% Inhibition @ 10 uM": -1.71}
{"molecule": "O=c1c2cccnc2n(Cc2ccccc2Cl)c(=O)n1Cc1ccccc1", "% Inhibition @ 10 uM": 0.0579}
{"molecule": "CCN1C(=O)[C@H]2Cc3c([nH]c4ccccc34)[C@@H](c3ccc(OC)c(OC)c3)N2C1=S", "% Inhibition @ 10 uM": 2.94}
{"molecule": "COc1cc(N)n(S(=O)(=O)c2ccc(C)cc2)n1", "% Inhibition @ 10 uM": 0.0289}
{"molecule": "COC(=O)c1ccc(Cl)c(-c2ccc(C(=O)N[C@@H](CC(C)C)C(=O)NCC#N)cc2)c1", "% Inhibition @ 10 uM": 1.35}
{"molecule": "CCc1ccc(C2CC(c3cc(OC)ccc3OC)n3nnnc3N2)cc1", "note": "(centres unmarked)", "% Inhibition @ 10 uM": -3.37}
{"molecule": "Cc1nc2nc(C)c(CCC(=O)N3CC(C)CC(C)C3)c(C)n2n1", "note": "(centres unmarked)", "% Inhibition @ 10 uM": 1.26}
{"molecule": "COc1ccccc1NC(=O)/C(=C\\c1cccnc1)NC(=O)c1ccc(C)cc1", "% Inhibition @ 10 uM": -4.98}
{"molecule": "COc1ccccc1/C=C/c1nc(C#N)c(N2CCN(Cc3ccccc3)CC2)o1", "% Inhibition @ 10 uM": -0.808}
{"molecule": "CCc1ccc(CN2C[C@@H]3C[C@H](C2)c2cccc(=O)n2C3)cc1", "% Inhibition @ 10 uM": -5.48}
{"molecule": "O=C1CC(NC2CCCC2)C(=O)N1c1cccc(C(F)(F)F)c1", "note": "(centres unmarked)", "% Inhibition @ 10 uM": -3.53}
{"molecule": "CCN(CC)C(=O)C1CCCN(CC(c2ccccc2)c2ccccc2)C1", "note": "(centres unmarked)", "% Inhibition @ 10 uM": 2.1}
{"molecule": "COc1ccc(/C=C2/c3ccccc3-c3cccnc32)cc1", "% Inhibition @ 10 uM": -6.71}
{"molecule": "Cc1cc(C)c(C#N)c(SCC(=O)c2cc3ccccc3oc2=O)n1", "% Inhibition @ 10 uM": 4.63}
{"molecule": "COc1ccccc1CNC(=O)c1noc2c1CSc1ccccc1-2", "% Inhibition @ 10 uM": 62.7}
{"molecule": "O=C(c1ccco1)n1nc(-c2cccnc2)nc1NCc1ccc(F)cc1", "% Inhibition @ 10 uM": 0.558}
{"molecule": "CCCCOC(=O)C1=C(N)N2C(=O)C(C)SC2=C(C(=O)OCC)C1c1ccc(O)c(OC)c1", "note": "(centres unmarked)", "% Inhibition @ 10 uM": 2.7}
{"molecule": "CC(C)OC(=O)c1c(NS(=O)(=O)c2ccccc2)sc2c1CCCC2", "% Inhibition @ 10 uM": 1.64}
{"molecule": "O=c1cc(CO)oc(C(Nc2ccccn2)c2cccc(Cl)c2)c1O", "note": "(centres unmarked)", "% Inhibition @ 10 uM": -7.35}
{"molecule": "C=CCSc1nc2cccnc2[nH]1", "% Inhibition @ 10 uM": 2.22}
{"molecule": "O=C(c1ccc2c(Cl)c3c(nc2c1)CCCC3)N1CCCCCC1", "% Inhibition @ 10 uM": -0.942}
{"molecule": "CN1CCN(CC(O)COCCC23CC4CC(CC(C4)C2)C3)CC1", "note": "(centres unmarked)", "% Inhibition @ 10 uM": -2.15}
{"molecule": "O=C1C2C3CCC(O3)C2C(=O)N1n1cnnc1", "note": "(centres unmarked)", "% Inhibition @ 10 uM": -0.999}
{"molecule": "COc1ccc(/C=N/CC2OCCc3ccccc32)c(OC)c1", "note": "(centres unmarked)", "% Inhibition @ 10 uM": 11.4}
{"molecule": "CC1(C)CC(NC(=O)CN2CCCC2=O)CC(C)(C)N1", "% Inhibition @ 10 uM": 3.9}
{"molecule": "CC(NC(=O)C1(c2ccccc2)CCOCC1)c1ccccc1", "note": "(centres unmarked)", "% Inhibition @ 10 uM": 7.98}
{"molecule": "Cc1cccc(S(=O)(=O)Nc2ccc(-c3cn4cccnc4n3)cc2)c1", "% Inhibition @ 10 uM": 3.48}
{"molecule": "COCc1nnc(NC(=O)Cn2cnc3c2c(=O)n(C)c(=O)n3C)s1", "% Inhibition @ 10 uM": 1.91}
{"molecule": "CN(C)C(c1ccc(Cl)cc1Cl)c1nnnn1-c1cccc(Cl)c1", "note": "(centres unmarked)", "% Inhibition @ 10 uM": 2.8}
{"molecule": "Cc1ccc(Cn2cnc3c(cnn3C(C)(C)C)c2=O)cc1", "% Inhibition @ 10 uM": 3.24}
{"molecule": "CCCNC(=O)Nc1ccc2c(c1)nc(C)n2C", "% Inhibition @ 10 uM": -7.62}
{"molecule": "COc1ccccc1C1CC(c2ccc(C)cc2)=NN1S(C)(=O)=O", "note": "(centres unmarked)", "% Inhibition @ 10 uM": -0.185}
{"molecule": "O=C1CCC(=O)N1c1ccccc1O", "% Inhibition @ 10 uM": 1.24}
{"molecule": "CCN(CC)c1ccc2c(C)c(CO)c(=O)oc2c1", "% Inhibition @ 10 uM": -3.66}
{"molecule": "Cc1ccc(/C=C2\\C(=N)N3N=C(S(=O)(=O)CC(C)C)SC3=NC2=O)cc1", "% Inhibition @ 10 uM": -1.54}
{"molecule": "COc1ccc(-c2cc(C(=O)N3CCOCC3)c3cc(Br)ccc3n2)cc1", "% Inhibition @ 10 uM": 1.8}
{"molecule": "CC(=O)n1cc(C(C[N+](=O)[O-])SCCN)c2ccccc21", "note": "(centres unmarked)", "% Inhibition @ 10 uM": 1.7}
{"molecule": "Cc1cccn2c(=O)c(/C=C(\\C#N)C(=O)NCc3ccccc3)c(Oc3ccc(Cl)cc3)nc12", "% Inhibition @ 10 uM": -1.65}
{"molecule": "Cc1ccc(S(N)(=O)=O)cc1NC(=O)Cc1ccccc1", "% Inhibition @ 10 uM": -3.47}
